Source: article PMC6667905
These are yes or no findings as the source states them, for the method shown. For some of these results: In cells and extracts the contact can be indirect. Some binding calls cover weakened binding; strength is not graded here. For some of these results: Where a sequence is shown, tags or fusion partners need not be part of it.

By UniProt entry, the sequences of proteins in these tests, tags left out. Where a name states a change or a piece, a line headed by the entry shows the natural chain unless it says otherwise. Chains listed by the source or under a name are the forms on record and can include a tag or linker.
Arabidopsis thaliana Aurora 2 in a plant BIFC vector (Q683C9, form named): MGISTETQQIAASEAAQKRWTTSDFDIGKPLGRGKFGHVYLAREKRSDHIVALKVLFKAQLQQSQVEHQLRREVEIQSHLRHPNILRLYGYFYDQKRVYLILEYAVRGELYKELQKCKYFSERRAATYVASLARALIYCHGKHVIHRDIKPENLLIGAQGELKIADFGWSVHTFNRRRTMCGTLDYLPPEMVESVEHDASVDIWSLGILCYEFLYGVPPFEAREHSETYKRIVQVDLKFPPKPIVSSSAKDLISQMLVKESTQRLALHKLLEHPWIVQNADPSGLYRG
UniProt O64629: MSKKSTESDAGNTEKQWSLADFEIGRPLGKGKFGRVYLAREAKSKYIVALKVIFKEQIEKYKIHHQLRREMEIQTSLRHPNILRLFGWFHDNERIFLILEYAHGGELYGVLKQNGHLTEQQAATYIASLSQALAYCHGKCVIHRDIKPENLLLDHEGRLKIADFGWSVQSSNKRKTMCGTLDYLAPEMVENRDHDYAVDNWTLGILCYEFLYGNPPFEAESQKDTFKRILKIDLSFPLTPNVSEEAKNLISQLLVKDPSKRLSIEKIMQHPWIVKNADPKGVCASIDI
UniProt Q9JN11: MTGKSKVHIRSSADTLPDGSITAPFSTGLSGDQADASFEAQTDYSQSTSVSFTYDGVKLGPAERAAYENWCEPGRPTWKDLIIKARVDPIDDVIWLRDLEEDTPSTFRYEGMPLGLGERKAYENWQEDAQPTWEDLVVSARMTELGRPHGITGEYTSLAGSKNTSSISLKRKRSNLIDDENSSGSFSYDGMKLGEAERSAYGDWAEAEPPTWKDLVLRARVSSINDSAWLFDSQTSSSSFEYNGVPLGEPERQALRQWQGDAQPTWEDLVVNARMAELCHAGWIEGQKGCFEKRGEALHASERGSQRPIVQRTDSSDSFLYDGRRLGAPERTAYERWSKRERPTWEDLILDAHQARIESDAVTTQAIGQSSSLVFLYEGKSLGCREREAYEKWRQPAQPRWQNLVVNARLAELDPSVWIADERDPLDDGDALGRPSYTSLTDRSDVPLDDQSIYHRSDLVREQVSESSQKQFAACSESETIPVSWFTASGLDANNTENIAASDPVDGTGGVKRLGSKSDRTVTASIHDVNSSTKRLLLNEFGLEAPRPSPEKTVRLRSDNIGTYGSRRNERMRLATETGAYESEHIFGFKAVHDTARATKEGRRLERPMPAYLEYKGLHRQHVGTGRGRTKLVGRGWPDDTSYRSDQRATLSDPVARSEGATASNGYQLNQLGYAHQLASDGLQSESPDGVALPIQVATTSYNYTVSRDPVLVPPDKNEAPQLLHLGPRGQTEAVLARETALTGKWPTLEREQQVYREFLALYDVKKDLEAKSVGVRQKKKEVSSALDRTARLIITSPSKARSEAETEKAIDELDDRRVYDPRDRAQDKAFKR

What was measured:
[1] = biological target: GST-Ipl1CT, the C-terminal catalytic part of Ipl1 (101-367 aa) (yeast) (UniProt P38991); test: pull-down; GST-tagged proteins immobilized on Glutathione HiCap Matrix; purified His-tagged VirD5 in binding buffer (50 mM NaH2PO4, 150 mM NaCl, pH 7.2, 0.1% Triton X-100), 2 h at room temperature; Western blot with anti-His HRP antibody; both purified
GST-tagged Ipl1 (yeast) = biological target: T1, GST-tagged Ipl1 (yeast) (UniProt P38991); test: as above
T1 sequence: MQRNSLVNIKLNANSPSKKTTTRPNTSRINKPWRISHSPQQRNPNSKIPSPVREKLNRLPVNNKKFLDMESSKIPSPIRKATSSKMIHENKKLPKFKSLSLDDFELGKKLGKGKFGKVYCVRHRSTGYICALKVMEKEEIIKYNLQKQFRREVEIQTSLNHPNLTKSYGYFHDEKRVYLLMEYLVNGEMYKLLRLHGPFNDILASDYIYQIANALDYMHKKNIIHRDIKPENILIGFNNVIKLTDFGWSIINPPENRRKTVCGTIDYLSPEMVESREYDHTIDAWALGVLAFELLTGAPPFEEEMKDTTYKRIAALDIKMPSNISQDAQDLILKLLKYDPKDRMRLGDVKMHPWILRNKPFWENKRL

[2] = biological target: GST-Ipl1NT, the N-terminal part of Ipl1 (1-118 aa) (yeast) (UniProt P38991); test: as above
[3] = biological target: T2, Arabidopsis thaliana Aurora 1 in a plant BIFC vector (Arabidopsis thaliana) (UniProt Q9M077); test: split reporter; BIFC in A. thaliana protoplasts transformed with plant BIFC vectors (35S promoter; nYFP 1-154, cYFP 155-238); 18 h at 25°C in the dark; confocal microscopy
T2 sequence: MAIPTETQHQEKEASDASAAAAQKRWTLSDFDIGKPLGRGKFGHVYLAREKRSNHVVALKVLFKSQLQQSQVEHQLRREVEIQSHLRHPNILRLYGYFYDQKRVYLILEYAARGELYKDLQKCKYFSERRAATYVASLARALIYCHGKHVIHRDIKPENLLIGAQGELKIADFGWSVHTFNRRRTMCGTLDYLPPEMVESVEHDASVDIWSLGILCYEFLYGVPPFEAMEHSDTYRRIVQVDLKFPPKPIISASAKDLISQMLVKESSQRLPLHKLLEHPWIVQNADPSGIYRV

[4] = biological target: Arabidopsis thaliana Aurora 2 in a plant BIFC vector (Arabidopsis thaliana) (UniProt Q683C9); test: as above
[5] = biological target: Arabidopsis thaliana Aurora 3 in a plant BIFC vector (Arabidopsis thaliana) (UniProt O64629); test: as above
[6] = biological target: T3, Dam1 in a plant BIFC vector (yeast) (UniProt P53267); test: as above
T3 sequence: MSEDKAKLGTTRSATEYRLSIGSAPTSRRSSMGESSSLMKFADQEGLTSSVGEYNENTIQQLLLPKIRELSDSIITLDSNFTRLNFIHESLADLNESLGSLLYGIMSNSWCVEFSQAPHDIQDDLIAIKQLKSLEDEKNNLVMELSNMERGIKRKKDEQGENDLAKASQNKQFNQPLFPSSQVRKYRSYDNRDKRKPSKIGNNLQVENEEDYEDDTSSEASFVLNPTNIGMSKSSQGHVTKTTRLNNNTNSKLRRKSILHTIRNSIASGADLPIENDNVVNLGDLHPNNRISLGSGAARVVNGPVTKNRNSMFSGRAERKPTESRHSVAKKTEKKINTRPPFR

[7] = biological target: T4, Ipl1 in a plant BIFC vector (yeast) (UniProt P38991); test: as above
T4 sequence: T1 sequence

[8] = biological target: T5, Dam1 (yeast outer kinetochore/microtubule-associated protein) fused with the N-terminal part of Venus (VN173) (yeast) (UniProt P53267); test: split reporter; BIFC in wild-type yeast cells (BY4743); VC173 on the N-terminus of VirD5 or its truncations, VN173 on the C-terminus of the kinetochore protein; 30°C, induction 1 h in MY medium lacking methionine; confocal microscopy
T5 sequence: T3 sequence

[9] = biological target: T6, Ipl1 (yeast Aurora kinase) fused with the N-terminal part of Venus (VN173) (yeast) (UniProt P38991); test: as above
T6 sequence: T1 sequence

In the case of “His-tagged VirD5 (from UniProt Q9JN11 1-833)”, the binding [1] is reported as “binds”, the binding (GST-tagged Ipl1 (yeast)) is reported as “binds” and the binding [2] is reported as “no binding”.
In the case of “VirD5 in a plant BIFC vector (fused to a half of YFP) (from UniProt Q9JN11 1-833)”, the binding [3] is reported as “binds”, the binding [4] is reported as “binds” and the binding [5] is reported as “binds”.
For “VirD5NT in a plant BIFC vector (from UniProt Q9JN11 1-505) (domain or fragment)”, the binding [6] was “binds” and the binding [7] was “binds”.
In the case of “VirD5NT, the N-terminal 505 aa of VirD5, fused with VC173 (from UniProt Q9JN11 1-505) (domain or fragment)”, the binding [8] is reported as “binds” and the binding [9] is reported as “binds”.
